Results reported in patent US20200181263A1 (NUMAB THERAPEUTICS, published 2020).

How the values were obtained:
human IL-23 receptor ECD = target: T1, human IL-23 receptor ECD (human, UniProt Q5VWK5 24-355); assay: SPR, target immobilised by amine coupling, binder as analyte
T1 construct: extracellular domain
T1 sequence (looked up): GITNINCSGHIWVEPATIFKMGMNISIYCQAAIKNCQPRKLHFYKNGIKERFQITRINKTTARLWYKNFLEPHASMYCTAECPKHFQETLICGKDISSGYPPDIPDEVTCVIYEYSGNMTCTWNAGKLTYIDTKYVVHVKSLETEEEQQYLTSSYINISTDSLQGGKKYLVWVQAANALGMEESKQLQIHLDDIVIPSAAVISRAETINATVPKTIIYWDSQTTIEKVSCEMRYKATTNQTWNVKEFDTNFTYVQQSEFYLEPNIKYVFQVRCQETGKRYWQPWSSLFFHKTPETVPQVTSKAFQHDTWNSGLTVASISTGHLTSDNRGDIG

HER2 = HER2 (UniProt P04626 in part, limits assumed); assay: as above

B1: PRO821 (other)
chain 1: DIQMTQSPSSLSASVGDRVTITCRASQDVNTAVAWYQQKPGKAPKLLIYSASFLYSGVPSRFSGSRSGTDFTLTISSLQPEDFATYYCQQHYTTPPTFGGGTKLTVLGGGGGSGGGGSGGGGSGGGGS[letters of about 120 residues omitted]GGGGSGGGGSDIQMTQSPSSLSASVGDRVTITCQSSQSVFSNNYLAWFQQKPGQSPKRLIYSASTLASGVPSRFSGSGSGTDFTLTISSLQPEDFATYYCLGSYACSSADCYVFGCGTKVTVLGEPEPEPEPEPEPEPDIQMTQSPSSLSASVGDRVTITCQSSESVYSNNQLSWYQQKPGQPPKLLIYDASDLASGVPSRFSGSGSGTDFTLTISSLQPEDFATYYCAGGFSSSSDTAFGGGTKLTVLG
chain 2: DIQMTQSPSSLSASVGDRVTITCQASENIYSFLAWYQQKPGKAPKLLIYSASKLAAGVPSRFSGSGSGTDFTLTISSLQPEDFATYYCQQTNRYSNPDIYNVFGTGTKVTVLGGGGGSGGGGSGGGGSGGGGSEVQLVESGGGLVQPGGSLRLSCAASGIDFNSNYYMCWVRQAPGKGLEWIGCIYVGSHVNTYYANWAKGRFTISRDNSKNTVYLQMNSLRAEDTAVYYCATSGSSVLYFKFWGQGTLVTVSSGGGGSGGGGSEVQLVESGGGLVQPGGSLRLSCAASGFSLSSNAMGWVRQAPGKGLEYIGIISVGGFTYYASWAKGRFTISRDNSKNTVYLQMNSLRAEDTATYFCARDRHGGDSSGAFYLWGQGTLVTVSSKPKPKPKPKPKPKPEVQLVESGGGLVQPGGSLRLSCAASGFSLSSYDMSWVRQAPGKCLAWIGASYASGPTYYASWAKGRFTISRDNSKNTVYLQMNSLRAEDTATYFCARGGWTGTSHSNIWGQGTLVTVSS
notes: Tetraspecific hetero-dimeric MATCH (Her2, IL23R, CD3, HSA), anti-parallel; diS in anti-CD3 domain, charged linker; also called tetraspecific MATCH assembly
Kd (human IL-23 receptor ECD): 0.303 nM | Kd (HER2): 0.0613 nM
